# Values joined by “and” are separate entries in the source; they are usually repeats but may differ in a detail not shown here. Equal entries are not always repeated. Among all 390,000 compounds or so, about 17,000 (4.4%) were called active. The shares of active, inactive and inconclusive entries below differ from those in the screen. Calls follow the shape of the dose curve; as a rule, active = well fitted inhibition curve with a large enough effect; inconclusive = small, poorly fitted or top-dose-only effect; inactive = no such curve, though single readings can be large or run the other way. Potencies beside an inconclusive call are fits to weak or partial responses and may not hold up.
# Target: Lysine-specific demethylase 4A (Homo sapiens) (UniProt O75164)
# Test: qHTS Assay for Inhibitors of JMJD2A-Tudor Domain; also: nearly all actives have a fitted effect of over 50% in size
# Conditions: AlphaScreen JMJD2A-Tudor / H3K4me3 peptide binding; activity change, negative = inhibition: at 114 µM (top of the series)
# % is scaled to controls: 0 for no effect and ±100 for the full control effect; potency is read from the fitted curve at half-maximal effect; tags tell the direction and shape of the fitted curve.
# Sequence of UniProt O75164 (O75164 whole entry, looked up, the tested form may be a part): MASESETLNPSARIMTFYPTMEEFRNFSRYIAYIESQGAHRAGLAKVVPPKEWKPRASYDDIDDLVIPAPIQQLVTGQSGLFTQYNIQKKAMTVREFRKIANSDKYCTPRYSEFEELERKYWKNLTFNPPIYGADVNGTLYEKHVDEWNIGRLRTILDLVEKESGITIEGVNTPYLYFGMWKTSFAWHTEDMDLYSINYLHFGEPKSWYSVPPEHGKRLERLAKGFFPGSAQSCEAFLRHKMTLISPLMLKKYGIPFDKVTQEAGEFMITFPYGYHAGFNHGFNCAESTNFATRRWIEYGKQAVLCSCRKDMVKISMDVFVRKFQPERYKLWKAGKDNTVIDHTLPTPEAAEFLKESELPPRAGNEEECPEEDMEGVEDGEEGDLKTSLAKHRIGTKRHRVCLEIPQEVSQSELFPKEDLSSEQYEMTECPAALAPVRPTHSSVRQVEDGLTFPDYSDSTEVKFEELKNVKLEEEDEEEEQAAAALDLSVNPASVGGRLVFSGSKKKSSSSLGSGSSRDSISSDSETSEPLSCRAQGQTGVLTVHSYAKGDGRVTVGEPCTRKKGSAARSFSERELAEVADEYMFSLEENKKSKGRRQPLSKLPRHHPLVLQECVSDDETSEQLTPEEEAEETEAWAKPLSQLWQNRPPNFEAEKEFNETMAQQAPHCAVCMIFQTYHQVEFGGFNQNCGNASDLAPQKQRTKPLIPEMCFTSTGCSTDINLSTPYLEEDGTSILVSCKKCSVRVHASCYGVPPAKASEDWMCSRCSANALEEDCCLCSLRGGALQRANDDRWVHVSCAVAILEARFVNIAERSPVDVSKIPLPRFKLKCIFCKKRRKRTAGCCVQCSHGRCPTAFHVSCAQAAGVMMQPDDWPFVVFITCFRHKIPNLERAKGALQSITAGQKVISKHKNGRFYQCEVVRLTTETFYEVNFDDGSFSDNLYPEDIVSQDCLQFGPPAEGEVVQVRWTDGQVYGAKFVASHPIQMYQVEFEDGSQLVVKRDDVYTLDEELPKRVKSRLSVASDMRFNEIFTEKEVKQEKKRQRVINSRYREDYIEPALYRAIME
SMILES,Potency,"activity change, negative = inhibition"
Cc1ccc(S(=O)(=O)Nc2cc(-c3ccc(Cl)cc3)nn2C)cc1,inactive,
COc1ccc(C2/C(=C(/O)c3ccc4c(c3)CC(C)O4)C(=O)C(=O)N2Cc2ccncc2)cc1 (centres undefined),"inconclusive: 100 µM [inhibitor, single point]",
COc1ccc(-c2cc(=O)oc3c(C)c(OCC(=O)NCCCn4ccnc4)ccc23)cc1,"inconclusive: 25.1 µM [inhibitor, full curve, poor fit]",
COC(=O)C1=C(C)N(CCCC(=O)O)C(=O)NC1c1cccs1 (centres undefined),inactive,
Cc1ccc(S(=O)(=O)Nc2cccc(-c3ccc(N4CCCCCC4)nn3)c2)c(C)c1,"inconclusive: 15.8 µM [inhibitor, full curve, poor fit]",
O=C(COC(=O)C1CC2C=CC1C2)Nc1c(Br)cc([N+](=O)[O-])cc1Br (centres undefined),"inconclusive: 50.1 µM [inhibitor, partial curve]",
Cc1nn(CCC(=O)NCCc2ccccc2Cl)c(=O)c2nn(-c3ccccc3)c(C)c12,inactive,
CC(=O)c1ccc2c(c1)C1C=CCC1C(C(=O)O)N2 (centres undefined),active: 6.31 µM,
CC(=O)c1cccc(NC(=O)Cn2c(-c3cncs3)nc3ccccc32)c1,inactive,
COc1cc(C)c(CNC2CCCCC2)cc1C,active: 5.01 µM,
CCN(CC)C(=O)/C=C/c1ccc(OC)c(S(=O)(=O)N2CCCCC2)c1,inactive,
CC1CC(C)(C)NC(=S)N1CCC(=O)N1CCc2ccccc21 (centres undefined),inactive,
CNC(=O)c1ccc(-c2nc(CN3CCc4ccccc43)c(C)o2)cc1,"inconclusive: 50.1 µM [inhibitor, partial curve]",
O=c1[nH]c2ccccc2n2c(-c3ccccc3)nnc12,active: 7.94 µM and active: 5.62 µM,
COc1cccc(/C=N/Nc2nc3ccccc3[nH]2)c1O,"inconclusive: 89.1 µM [inhibitor, partial curve]",
O=C(Oc1ccc(C(=S)N2CCOCC2)cc1Cl)c1ccccc1F,inactive,
CCc1ccc2oc(C(=O)Nc3nc(-c4ccc(F)cc4)ns3)c(C)c2c1,inactive,
CCN(C[C@H]1N[C@@](C)(C(=O)OC)[C@H]2C(=O)N(Cc3ccccc3)C(=O)[C@@H]12)S(=O)(=O)c1ccc(F)cc1,inactive,
CN(C)CCCN1c2ccccc2Sc2ccc(Cl)cc21,active: 20 µM,
Nc1nc(NCCc2ccccc2)nc(NCc2ccccc2)c1[N+](=O)[O-],"inconclusive: 28.2 µM [inhibitor, full curve, poor fit]",
Cc1cc2n(n1)SC(Nc1ccc(F)cc1)N2 (centres undefined),active: 20 µM,
Cc1ccc(NC(=O)/C=C\C(=O)NCC(=O)O)cc1,"inconclusive: 22.4 µM [inhibitor, single point]",
COCC(=O)N/N=C/c1c(C)[nH]n(-c2ccccc2)c1=O,active: 79.4 µM,
Nc1nc(-c2cccs2)c(NC(=O)c2ccccc2)s1,"inconclusive: 0.631 µM [inhibitor, full curve, poor fit]",
CC(C)CN(C(=O)CSc1nncn1-c1ccccc1)c1c(N)n(CC(C)C)c(=O)[nH]c1=O,inactive,

SMILES,Potency,"activity change, negative = inhibition"
CC1CCN(C(=O)CN2CCSc3ccc(S(=O)(=O)N(C)C)cc32)CC1,inactive,
Cc1ccc(CN(C)C(=O)c2cc(COc3ccc(F)cc3Cl)on2)o1,"inconclusive: 22.4 µM [inhibitor, full curve]",
O=C1CCCN2N=C(SCC(=O)Nc3ccc([N+](=O)[O-])cc3)SC2=N1,active: 56.2 µM,
O=C(OC12CC3CC(CC(C3)C1)C2)c1ccc(NCc2cc(O)ccc2O)cc1,active: 56.2 µM,
COc1ccc(N/C(=C2\CCCC2=O)C2CCCCC2)cc1,active: 56.2 µM,
COc1cc(OC)cc(C(=O)Nc2nc(CC(=O)NCc3ccccc3OC)cs2)c1,,inconclusive: -37.9% [inhibitor]
OCCn1c(-c2ccc(F)cc2)csc1=Nc1ccccc1,"inconclusive: 50.1 µM [inhibitor, partial curve]",
COCC(C)NS(=O)(=O)c1ccc(NC(=O)C(Cc2ccccc2)NC(N)=O)cc1 (centres undefined),"inconclusive: 79.4 µM [inhibitor, single point]",
O=C1CCc2cc([S+](=O)([O-])Nc3ccc(N[S+](=O)([O-])c4ccc5c(c4)CCC(=O)N5)cc3)ccc2N1,inactive,
Oc1ccc(/C=N/N2CCOCC2)c(O)c1O,active: 22.4 µM,
CCCCNC(=O)Cn1c(SCc2ccccc2C)nc2ccncc21,inactive,
Cc1nc2c(C#N)c[nH]n2c(=O)c1CCO,,inactive: -21.3% [at 11.4 µM]
CC(=O)N1CCc2cc(S(=O)(=O)C(C)CC(=O)NCc3ccc(C)o3)ccc21 (centres undefined),inactive,
Cc1ccccc1NC(=S)N(CCc1c(C)[nH]c2ccc(F)cc12)Cc1ccncc1,"inconclusive: 44.7 µM [inhibitor, partial curve]",
Cc1ccc2oc(C(=O)N3CCC(O)(c4ccccc4)CC3)c(C)c2c1,inactive,
N#CCCn1cc(/C=N/NC(N)=S)c(-c2ccc(-c3ccccc3)cc2)n1,"inconclusive: 50.1 µM [inhibitor, partial curve]",
O=C(COC(=O)/C=C/c1ccccc1[N+](=O)[O-])NC1CC1,"inconclusive: 11.2 µM [inhibitor, partial curve, poor fit]",
Cc1cc(=O)oc2cc(NC(=O)COc3ccccc3[N+](=O)[O-])ccc12,inactive,
COc1ccc(NC(=O)Nc2nnc(SCC(=O)Nc3cccc(C)c3C)s2)cc1,inactive,
Cc1ccc(C2C=C(c3ccc(Cl)cc3)Nc3nc(NC(=O)CCC(=O)O)nn32)cc1 (centres undefined),active: 79.4 µM,
O=C(CS(=O)(=O)Cc1ccccc1)NCc1ccccc1Cl,inactive,
O=S(=O)(NCCc1ccc(Cl)cc1)c1ccc(N2CCCCS2(=O)=O)cc1,inactive,
O=C(N/N=C\c1ccc(Br)o1)C1COc2ccccc2O1 (centres undefined),active: 39.8 µM,
CC(=O)Nc1ccc(NC(=O)CNC(=O)c2cccc(C)c2)cc1,inactive,
CCOc1cc(C2C(C(=O)c3ccc(C)o3)=C(O)C(=O)N2CCc2ccccc2)ccc1O (centres undefined),"inconclusive: 50.1 µM [inhibitor, partial curve]",

SMILES,Potency,"activity change, negative = inhibition"
CCC1=C([N+](=O)[O-])C(c2ccc3c(c2)OCO3)NC(=O)N1 (centres undefined),inactive,
CN1CCN(c2oc(-c3ccccc3F)nc2S(=O)(=O)c2ccc(Cl)cc2)CC1,"inconclusive: 44.7 µM [inhibitor, partial curve]",
Cn1cccc1/C=C1\SC(=S)N(NC(=O)c2ccc(Cl)cc2)C1=O,"inconclusive: 17.8 µM [inhibitor, single point]",
CCn1c(O)c(C2=NCCCC2)c2ccccc21,"inconclusive: 79.4 µM [inhibitor, partial curve]",
C(/CCc1ccccc1)=N\Nc1nc2ccccc2[nH]1,"inconclusive: 28.2 µM [inhibitor, partial curve]",
CCCCOc1ccc(NC(=O)CSc2ccc(C(=O)O)cn2)cc1,inactive,
CN1CCN(C(=O)C2CCCN(S(=O)(=O)c3ccc(Cl)cc3)C2)CC1 (centres undefined),active: 0.708 µM,
O=C(O)c1cccc(Oc2ccc(C(=O)O)c([N+](=O)[O-])c2)c1,"inconclusive: 10 µM [inhibitor, partial curve]",
COc1ccc(NC(=O)COC(=O)CC23CC4CC(CC(C4)C2)C3)c([N+](=O)[O-])c1,"inconclusive: 25.1 µM [inhibitor, partial curve]",
CCOC(=O)c1ccc(NC(=O)Nc2cccc(OCc3cc(=O)n4ccc(C)cc4n3)c2)cc1,inactive,
CC(=O)c1cccc(NC(=O)CN2C(=O)COc3ccc(S(=O)(=O)N4CCOCC4)cc32)c1,"inconclusive: 50.1 µM [inhibitor, partial curve]",
CC(C)[C@H](NC(=O)c1ccccc1)C(=O)OCC(=O)Nc1sccc1C(N)=O,inactive,
Cc1nnc(SCC(=O)Nc2ccc(Cl)cn2)n1Cc1ccccc1,inactive,
CN1CCN(C(c2cccc(Cl)c2)c2ccccc2Cl)CC1 (centres undefined),"inconclusive: 31.6 µM [inhibitor, full curve]",
Cn1c(/C=C/c2ccc(Br)cc2)nc2ccccc2c1=O,inactive,
NC(=O)c1c(NC(=S)Nc2ccccc2)sc2c1CCCC2,"inconclusive: 79.4 µM [inhibitor, partial curve]",
CCOc1ccc(N2CC(C(=O)Nc3nnc(Cc4ccc(OC)c(OC)c4)s3)CC2=O)cc1 (centres undefined),"inconclusive: 79.4 µM [inhibitor, single point]",
N=c1c(C(=O)NCCc2ccccc2)cc2c(=O)n3ccccc3nc2n1CCCN1CCOCC1,"inconclusive: 44.7 µM [inhibitor, partial curve]",
Cc1ccc(CNC(=O)CN2C(=O)COc3ccc(S(=O)(=O)N4CCC(C)CC4)cc32)o1,"inconclusive: 39.8 µM [inhibitor, single point]",
COc1ccc(C2=NOC3(CC(=O)N(c4ccc5ccccc5c4)C3=O)C2)c(OC)c1 (centres undefined),active: 50.1 µM,
C[C@H](NC(=O)c1nc[nH]c1C(=O)N[C@@H](C)C(=O)OC(C)(C)C)C(=O)OC(C)(C)C,"inconclusive: 56.2 µM [inhibitor, partial curve, poor fit]",
NCc1nc2cccnc2n1Cc1ccccc1Cl,"inconclusive: 44.7 µM [inhibitor, partial curve]",
C/C(=C\C=C(C#N)C#N)c1cc(C#N)c(N)o1,"inconclusive: 15.8 µM [inhibitor, full curve, poor fit]",
COc1cccc(/C=C/C(=O)OCC(=O)Nc2nnc(-c3ccccc3)o2)c1OC,"inconclusive: 56.2 µM [inhibitor, partial curve, poor fit]",

# — PubChem BioAssay AID504339 (National Center for Advancing Translational Sciences (NCATS), 2011)
